PubChem BioAssay AID1347073 (National Center for Advancing Translational Sciences (NCATS), 2019)
Among all 45,000 compounds or so, about 200 (0.44%) were called active. Another 7% or so got no clear call; they are omitted. The call rests on the fitted dose curve; in most records, active means well fitted activation curve with a large enough effect; inconclusive means small, poorly fitted or top-dose-only effect; inactive means no such curve, though single readings can be large or run the other way. This is one part of the list.

Assay: qHTS of TDP-43 Inhibitors: NCGC Sytravon Library Screen; further: 0% is about no effect; nearly all actives have a fitted effect of over 55% in size
Settings: yeast TDP-43 toxicity rescue, BacTiter-Glo growth, 24 h; series mostly up to 46.1 µM; growth rescue (activation): at the top concentration
How it was run: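 TDP-43-expressing yeast, pregrown in raffinose, seeded at OD600 0.02 in galactose medium with compound for 24 hr at 30 deg C. Growth read by BacTiter-Glo luminescence, so rescue of toxicity appears as activation.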

Row | Compound | growth rescue (activation) | Potency
1 | Cc1ccc(C(O)c2ncc(-c3ccc(C(F)(F)F)cc3)[nH]2)cc1F (configuration not stated) | inactive: 16.5% | –
2 | CCN(CC)S(=O)(=O)c1ccc2c(c1)N(CC(=O)Nc1ccc(F)cc1)C(=O)CO2 | inactive: 3.02% | –
3 | CCN(CC)S(=O)(=O)c1cc(NC(=O)CCNC(=O)c2ccccc2Cl)ccc1C | inactive: 7.36% | –
4 | COc1cc(NC(=O)CN2CCN(Cc3ccc4c(c3)OCO4)CC2)cc(OC)c1 | inactive: 15.8% | –
5 | CC(C)(C)NC(=O)c1ccc2c(c1)N(CC(=O)NC1CCCC1)C(=O)C(C)(C)O2 | inactive: -1.35% | –
6 | OC(c1cccc(CN2CCCCC2)c1)c1ncc(-c2ccccc2Cl)[nH]1 (configuration not stated) | inactive: 17.3% | –
7 | COc1ccc(OC)c(S(=O)(=O)NC2CCSc3ccccc32)c1 (configuration not stated) | inactive: 21.5% | –
8 | O=C(CSCc1ccccc1)NCCCN1CCOCC1 | inactive: -4.79% | –
9 | O=C(Nc1ccc(C(F)(F)F)cc1)c1ccc(NC(=O)C2CCCO2)cc1 (configuration not stated) | inactive: 11% | –
10 | CCOC(=O)c1c(-c2ccc(F)cc2)csc1NC(=O)C1CC=CCC1C(=O)O (configuration not stated) | inactive: 16% | –
11 | CCn1cc(C=C2C(=O)c3ccccc3C2=O)c2ccccc21 | inactive: 13.4% | –
12 | Cc1cccc(-c2noc(CCC(=O)NC3CCCC3)n2)c1 | inactive: 29.6% | –
13 | O=C(CSc1nc2ccccc2c(=O)[nH]1)Nc1ccccc1O | inactive: -15.8% | –
14 | CCN(CC)c1ccc(NC(=O)c2cnn(CC)c2)cc1 | inactive: 5% | –
15 | COc1ccc(NC(=O)/C(=C\c2ccco2)NC(=O)c2ccco2)cc1 | inactive: 11.3% | –
16 | Cn1c(CO)cnc1SCc1ccc(F)cc1 | inactive: -13.3% | –
17 | O=C(NN=C(Cc1ccccc1)Cc1ccccc1)c1ccccc1O | inactive: -2.24% | –
18 | CC1(C)NC(=O)N(CC(=O)OCC(=O)Nc2cc(S(=O)(=O)N3CCCCCC3)ccc2Cl)C1=O | inactive: 4.15% | –
19 | O=C(OCC1OC2OC3(CCCCC3)OC2C2OC3(CCCCC3)OC12)c1ccccc1 (configuration not stated) | inactive: 20.5% | –
20 | CC(N=C1NS(=O)(=O)c2ccccc21)C(=O)NCc1ccc(F)cc1 (configuration not stated) | inactive: 2.45% | –
21 | COc1ccc(OCCCn2c(=O)oc3ccc(C)cc32)cc1 | inactive: 26.4% | –
22 | Cc1ccc(-c2nnn(CC(=O)N(CC3CCCO3)C(C(=O)NC3CCCC3)c3ccc(F)cc3)n2)o1 (configuration not stated) | inactive: 33% | –
23 | C/C(N)=C(/C#N)C(=O)COC(=O)c1cc(C)n(-c2ccc(F)cc2)c1C | inactive: 11.2% | –
24 | CCCOc1ccc(C2/C(=C(\O)c3c(C)[nH]c(C(=O)OC)c3C)C(=O)C(=O)N2CCN(C)C)cc1 (configuration not stated) | inactive: 10.8% | –
25 | CCNc1nc(CN2CCCCC2)nc2scc(-c3ccccc3)c12 | inactive: 14% | –
26 | CCCCNC(=S)NNC(=O)C1=NN(c2cc(C)ccc2C)C(=O)CC1 | inactive: -2.83% | –

Row | Compound | growth rescue (activation) | Potency
27 | CC(C)NC(=O)CC1C(=O)N(Cc2ccccc2)C(C)c2nc3ccccc3n21 (configuration not stated) | inactive: 7.24% | –
28 | CCNC(=O)C1(C)CCN(C(=O)c2cccc(C#N)c2)C1 (configuration not stated) | inactive: 12.4% | –
29 | CCCCN(CC)CCNC(=O)c1cc2c(-c3ccc(Cl)cc3)nn(C)c2s1 | – | inactive
30 | c1ccc2[nH]c(SCc3cn4ccccc4n3)nc2c1 | inactive: -12.4% | –
31 | Cc1ccc(C(=O)Nc2cccnc2)cc1S(=O)(=O)N1CCCC1 | inactive: 3.13% | –
32 | O=C(NNS(=O)(=O)c1ccc2ccccc2c1)NC1CCCCC1 | inactive: 21.2% | –
33 | O=c1c2ccccc2nc(/C=C/c2cccc([N+](=O)[O-])c2)n1CCO | inactive: -14.1% | –
34 | O=C(O)c1c(F)c(F)cc2ccccc12 | inactive: 16.8% | –
35 | CC(=O)Nc1ccc(NC(=O)[C@H](C)NC(=O)c2ccco2)cc1 | inactive: 9.71% | –
36 | O=C(NC(=S)NNS(=O)(=O)c1ccccc1)c1ccc([N+](=O)[O-])cc1 | inactive: -9.47% | –
37 | Cc1ccc(NC(=O)Cc2nnc(SCC(=O)NC3CCCC3)n2C)c(C)c1 | inactive: -21.3% | –
38 | COc1ccccc1/C=C/c1nc(C#N)c(N2CCCCCC2)o1 | inactive: 12.7% | –
39 | O=C(COC(=O)/C=C/c1cccc(C(F)(F)F)c1)NC(=O)NCc1ccco1 | inactive: 13.6% | –
40 | NC(=O)c1cccc(-c2ccnc3c2CC(C(=O)NCc2ccccc2)O3)c1 (configuration not stated) | inactive: -4.24% | –
41 | CCOc1ccc(S(=O)(=O)N(C)c2ccc(OCC(=O)NC3=NCCS3)cc2)cc1 | inactive: 14.6% | –
42 | CC(=O)Nc1cccc(-c2ccnc3c2CC(C)(C(=O)Nc2cccc(C(C)=O)c2)O3)c1 (configuration not stated) | inactive: 14.7% | –
43 | O=C(NNC(=S)Nc1ccc(F)cc1)[C@H]1C[C@@H]1c1ccccc1 | inactive: 19.1% | –
44 | O=C(C1=NN[C@@H]2C(=O)N(c3cccc(F)c3)C(=O)[C@H]12)C(c1ccccc1)c1ccccc1 | inactive: 2.91% | –
45 | S=c1nc(C2COc3ccccc3O2)[nH][nH]1 (configuration not stated) | inactive: 12.7% | –
46 | CC(C)CC1NC(=O)N(CC(=O)Nc2ccc(OC(F)F)cc2)C1=O (configuration not stated) | inactive: -15.9% | –
47 | COc1ccc2c(c1)-c1nc(NC(=O)c3cc(Cl)ccc3OC)sc1CC2 | inactive: 4.49% | –
48 | Cc1ccc(S(=O)(=O)N2CCCCC2)cc1C(=O)Nc1cccnc1 | inactive: 6.37% | –
49 | O=C(Nc1ccc(N2CCOCC2)cc1)c1ccc([N+](=O)[O-])cc1 | inactive: 6.47% | –
50 | OC[C@@H]1CN(Cc2cccnc2)C[C@H](n2cnc3c(N4CCOCC4)ncnc32)O1 | inactive: -10.7% | –
51 | OCCNC(=S)NCCc1ccccc1 | inactive: -4.78% | –
52 | CC1(C)C2CCC1(CS(=O)(=O)N1CCCC1C(=O)O)C(=O)C2 (configuration not stated) | inactive: 8.96% | –
